Like-named read-outs stand apart in the source and are kept apart here.
Tested on: SARS-CoV-2

Molecule | susceptibility of ACE2-A549 cells to SARS-COV-2 infection | susceptibility of ACE2-A549 cells to SARS-COV-2 infection (48 hours, 5 UI/mL Apyrase, 500 μM Probenecid, FIG. 15)
CCCN(CCC)S(=O)(=O)c1ccc(C(=O)O)cc1 [Probenecid] | reduce the susceptibility of ACE2-A549 cells to SARS-COV-2 infection | –
Apyrase | – | reduce the susceptibility of ACE2-A549 cells to SARS-COV-2 infection
